Experimental data as given in the antibiotic and cytotoxicity screens of Wong et al. (2023).
This is one part of the list.

These compounds were tested on HSkMC (human skeletal muscle cells) (assay: cytotoxicity call (relative viability < 0.9)). Conditions: 10 µM.

| SMILES | cytotoxicity call |
| --- | --- |
| Cc1ccc(S(=O)(=O)N2C[C@H](O)COC[C@H]3O[C@H](CC(=O)N4CCc5ccccc5C4)CC[C@@H]32)cc1 | inactive |
| COc1ccc(S(=O)(=O)Nc2ccc3c(c2)C(=O)N([C@H](C)CO)C[C@H](C)[C@H](CN(C)C(=O)c2ccccc2)OCCCC[C@@H](C)O3)cc1 | inactive |
| NNC(=O)c1ccc(C(=O)NO)cc1 | inactive |
| C[C@@H]1CCCCO[C@@H](CN(C)Cc2ccncc2)[C@@H](C)CN([C@H](C)CO)C(=O)c2cc(NC(=O)Nc3ccc(C(F)(F)F)cc3)ccc2O1 | inactive |
| N[C@@H](CO)c1ccccc1 | inactive |
| CO[C@H]1O[C@H](COS(=O)(=O)O)[C@@H](O[C@@H]2O[C@@H](C(=O)O)[C@@H](O[C@H]3O[C@H](COS(=O)(=O)O)[C@@H](O[C@@H]4O[C@H](C(=O)O)[C@@H](O[C@H]5O[C@H](COS(=O)(=O)O)[C@@H](O)[C@H](O)[C@H]5NS(=O)(=O)O)[C@H](O)[C@H]4O)[C@H](OS(=O)(=O)O)[C@H]3NS(=O)(=O)O)[C@H](O)[C@H]2OS(=O)(=O)O)[C@H](O)[C@H]1NS(=O)(=O)O | inactive |
| NC(=S)N1CCCC1 | inactive |
| C[C@@H]1CN([C@@H](C)CO)C(=O)c2cc(NC(=O)Nc3cccc4ccccc34)ccc2O[C@H]1CN(C)Cc1ccccc1 | inactive |
| Cc1ccc(S(=O)(=O)N2C[C@@H](O)COC[C@@H]3O[C@H](CC(=O)N[C@H]4CCN(Cc5ccccc5)C4)CC[C@H]32)cc1 | inactive |
| Cc1ccc(S(=O)(=O)Nc2ccc3c(c2)CC(=O)N([C@H](C)CO)C[C@@H](C)[C@@H](CN(C)Cc2ccc(Oc4ccccc4)cc2)O3)cc1 | inactive |
